{"source": "PubChem BioAssay AID485294", "about": "(National Center for Advancing Translational Sciences (NCATS), 2010)", "note": "Hit rate of the full screen: of about 370,000 compounds, about 150 (0.041%) were called active. Inconclusive results, whose numbers are uncertain, are shown with a selection of clear calls. Calls come from the whole dose curve; as a rule, active = well fitted inhibition curve with a large enough effect; inconclusive = small, poorly fitted or top-dose-only effect; inactive = flat fitted curve, though single readings scatter. Potencies of inconclusive entries are left out as doubtful fits. Potency is the fitted concentration of half-maximal effect; tags give direction and shape of the fitted curve."}
{"biological_target": "Beta-lactamase (Escherichia coli (strain K12)) (UniProt P00811)", "sequence (P00811 whole entry, looked up)": "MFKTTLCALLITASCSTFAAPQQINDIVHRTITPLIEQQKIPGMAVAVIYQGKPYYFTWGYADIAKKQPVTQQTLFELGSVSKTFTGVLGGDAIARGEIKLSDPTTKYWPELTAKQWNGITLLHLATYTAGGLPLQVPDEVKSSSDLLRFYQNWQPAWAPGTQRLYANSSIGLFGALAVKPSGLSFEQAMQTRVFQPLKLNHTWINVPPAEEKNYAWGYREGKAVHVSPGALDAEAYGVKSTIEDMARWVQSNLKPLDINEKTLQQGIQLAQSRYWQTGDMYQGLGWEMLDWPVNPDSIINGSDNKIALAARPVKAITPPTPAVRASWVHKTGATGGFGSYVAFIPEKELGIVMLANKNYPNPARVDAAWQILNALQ", "experiment": "qHTS Inhibitors of AmpC Beta-Lactamase (assay with detergent); note: nearly all actives have a fitted effect of over 25% in size", "settings": "AmpC hydrolysis of nitrocefin, absorbance 480 nm, 0.01% Triton; series mostly up to 114 µM", "how_it_was_run": "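20 mM phosphate pH 7.0 + 0.01% (detergent screen) or 0.0001% Triton X-100; 5.3 nM AmpC reagent; cpd preinc 15 min RT; nitrocefin (800 uM stock) to start; A480 q20 s × 4 min; Activity was normalised to no-enzyme and no-compound control wells.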"}
{"smiles": "CCc1nnc(N/N=C/c2ccc(N3CCC(C)CC3)c([N+](=O)[O-])c2)n1N", "Potency": "inconclusive [inhibitor, full curve, poor fit]"}
{"smiles": "CCOC(=O)[C@@H]1[C@H]2COc3ccc(Br)cc3[C@H]2N2C(=O)N(c3ccc(F)cc3)C(=O)[C@@]12C", "Potency": "inconclusive [inhibitor, full curve, poor fit]"}
{"smiles": "C[n+]1cnc(-c2ccccc2)cc1-c1ccccc1", "Potency": "inconclusive [inhibitor, partial curve]"}
{"smiles": "CC1(C)CC(=O)c2c(O)cc(OCC(=O)Nc3ccc(S(N)(=O)=O)cc3)cc2O1", "Potency": "inconclusive [inhibitor, partial curve]"}
{"smiles": "Cc1cc(NC(=O)CSc2nc3ccccc3c(=O)n2C2CCCC2)no1", "Potency": "inconclusive [inhibitor, full curve, poor fit]"}
{"smiles": "O=C(CCN1C(=O)/C(=C/c2ccccc2)SC1=S)NNC(=O)c1ccncc1", "Potency": "inactive"}
{"smiles": "COc1ccc(N2C(=O)/C(=C\\c3ccco3)N=C2SCC(=O)N(C(C)C)C(C)C)cc1Cl", "Potency": "inconclusive [inhibitor, full curve]"}
{"smiles": "COc1ccc(C(=O)NCCONC(=O)c2ccc(OC)cc2)cc1", "Potency": "inconclusive [inhibitor, partial curve]"}
{"smiles": "O=C(NC1CCCC1)C1CCCN(S(=O)(=O)c2ccc(-n3cnnn3)cc2)C1", "note": "(stereo not drawn)", "Potency": "inconclusive [inhibitor, partial curve, poor fit]"}
{"smiles": "CCc1ccc(NC(=O)c2cc3c([nH]c2=O)CC(C)(C)CC3=O)cc1", "Potency": "inactive"}
{"smiles": "Cc1cnc(C(=O)Nc2cccc3cccnc23)cn1", "Potency": "inconclusive [inhibitor, single point]"}
{"smiles": "Cc1cc(-c2ccc(S(=O)(=O)Nc3ccc(Br)c(C)c3)s2)on1", "Potency": "inactive"}
{"smiles": "Cc1csc(N2CCc3ccccc32)n1", "Potency": "inactive"}
{"smiles": "COc1ccc(CCNc2ccc(C(CC(N)=O)NC(=O)c3ccc(Br)cc3)cc2[N+](=O)[O-])cc1", "note": "(stereo not drawn)", "Potency": "inactive"}
{"smiles": "COCc1cc(CN2CCN(Cc3ccsc3)C(CCO)C2)ccc1OC", "note": "(stereo not drawn)", "Potency": "inactive"}
{"smiles": "COC(=O)[C@@H]1CC[C@H](C)[C@@H](c2ccc(C)cc2)N1C(=O)c1ccc(/C=N/OC[C@@H](O)[C@H]2O[C@@H]3OC(C)(C)O[C@@H]3[C@H]2O)cc1", "Potency": "inconclusive [inhibitor, full curve, poor fit]"}
{"smiles": "Cc1cc(N2CCN(C(=O)c3ccco3)CC2)n2nc(-c3cccc(Cl)c3)cc2n1", "Potency": "inconclusive [inhibitor, full curve, poor fit]"}
{"smiles": "CCCc1c(C)nc2c(Br)cccc2c1Cl", "Potency": "inconclusive [inhibitor, single point]"}
{"smiles": "COc1ccc(N(Cc2cccs2)C(=O)COc2cc(C)c(Cl)c(C)c2)cc1", "Potency": "inactive"}
{"smiles": "CC(=O)N1c2ccccc2-c2nc3ccccc3n2C1C", "note": "(stereo not drawn)", "Potency": "inconclusive [inhibitor, partial curve, poor fit]"}
{"smiles": "COc1ccc(C(=O)/C=C/C(=O)N(CC(=O)NC2CCCCC2)CC2CCCO2)c(O)c1", "note": "(stereo not drawn)", "Potency": "inactive"}
{"smiles": "COc1ccccc1NC(CC(=O)c1ccccc1)C(=O)OCC(=O)c1ccc(C)cc1", "note": "(stereo not drawn)", "Potency": "inconclusive [inhibitor, single point]"}
{"smiles": "O=C(NC1CCCCC1)C1CCN(c2cnccn2)CC1", "Potency": "inconclusive [inhibitor, full curve, poor fit]"}
{"smiles": "OC[C@H]1O[C@@H](n2cnc3c(NC4CCCC4)ncnc32)[C@H](O)[C@@H]1O", "Potency": "inconclusive [inhibitor, single point]"}
{"smiles": "O=[N+]([O-])c1ccc(-c2ccc(C=Nc3cccc4ccccc34)o2)cc1", "Potency": "inconclusive [inhibitor, partial curve, poor fit]"}
{"smiles": "CCOCCn1c(CN2CCC(Cc3ccccc3)CC2)nc2c1c(=O)n(C)c(=O)n2C", "Potency": "inconclusive [inhibitor, single point]"}
{"smiles": "C=CCn1c(SCC(=O)c2ccc(O)c(O)c2)nnc1-c1cccc(C)c1", "Potency": "inactive"}
{"smiles": "CC(C)(C)SCCNS(=O)(=O)c1ccc(Cl)cc1", "Potency": "inconclusive [inhibitor, single point]"}
{"smiles": "Cc1ccc(N(CC(=O)Nc2ccc(C)cn2)S(=O)(=O)c2c(C)nn(C)c2C)cc1", "Potency": "inconclusive [inhibitor, full curve, poor fit]"}
{"smiles": "COc1ccc2c(CNCCc3ccccc3)c(C(=O)O)n(Cc3cccc(F)c3)c2c1", "Potency": "inactive"}
{"smiles": "CCCCc1cc(=O)oc2cc(C)cc(OC(C)C(=O)NC(Cc3c[nH]c4ccc(O)cc34)C(=O)O)c12", "note": "(stereo not drawn)", "Potency": "inconclusive [inhibitor, full curve, poor fit]"}
{"smiles": "COc1ccc(CSCC(=O)N/N=C/c2ccccc2O)cc1", "Potency": "inactive"}
{"smiles": "COc1cc2c(cc1OC)-c1cc(Nc3ccc(N(C)C)cc3)nc(=O)n1CC2", "Potency": "inactive"}
{"smiles": "COc1cc(/C=N/NC(=S)Nc2cccc(S(=O)(=O)N(C)C)c2)ccc1O", "Potency": "inactive"}
{"smiles": "COc1ccc(C(=O)/C=C/C(=O)N(CC(=O)NC2CCCCC2)Cc2ccccc2)c(O)c1", "Potency": "inactive"}
{"smiles": "Cc1cccc(NC(=S)NNC(=O)c2ccc3c(c2)OCO3)c1", "Potency": "inconclusive [inhibitor, full curve]"}
{"smiles": "CC(=O)Nc1ccc(NC(=O)CN2C(=O)COc3ccc(S(=O)(=O)N4CCOCC4)cc32)cc1", "Potency": "inconclusive [inhibitor, partial curve, poor fit]"}
{"smiles": "Cc1ccc(-c2onc(C)c2C)cc1S(=O)(=O)Nc1ccc(Cl)cn1", "Potency": "inactive"}
{"smiles": "Cc1[nH]n(-c2ccccc2)c(=S)c1C=Nc1ccc([N+](=O)[O-])cc1", "Potency": "inactive"}
{"smiles": "COc1ccc(NC(=O)C2Cc3ccccc3N2C(=O)c2ccccc2)cc1OC", "note": "(stereo not drawn)", "Potency": "inconclusive [inhibitor, partial curve, poor fit]"}
{"smiles": "CCOC(=O)c1cccc(NC(=O)CSc2nnc(-c3ccoc3C)n2CCOC)c1", "Potency": "inactive"}
{"smiles": "Cc1c2c(nc3nc4ccccc4n13)CCCC2=O", "Potency": "inconclusive [inhibitor, full curve]"}
{"smiles": "CCOc1ccc(NC(=O)CN2C(=O)C3CCCN3C2=O)cc1", "note": "(stereo not drawn)", "Potency": "inconclusive [inhibitor, full curve]"}
